Data as given in publication PMC4336329 (PLoS ONE, 2015).
Out of some 310,000 compounds screened, about 2,200 (0.71%) showed an effect of 50% or more. The effect is printed as a negative number. This is one part of the list.

biological target: human ether-à-go-go-related gene (hERG) potassium channel (human, UniProt Q12809); experiment: primary screen, population patch clamp on CHO cells stably expressing hERG
Sequence (Q12809 whole entry, looked up): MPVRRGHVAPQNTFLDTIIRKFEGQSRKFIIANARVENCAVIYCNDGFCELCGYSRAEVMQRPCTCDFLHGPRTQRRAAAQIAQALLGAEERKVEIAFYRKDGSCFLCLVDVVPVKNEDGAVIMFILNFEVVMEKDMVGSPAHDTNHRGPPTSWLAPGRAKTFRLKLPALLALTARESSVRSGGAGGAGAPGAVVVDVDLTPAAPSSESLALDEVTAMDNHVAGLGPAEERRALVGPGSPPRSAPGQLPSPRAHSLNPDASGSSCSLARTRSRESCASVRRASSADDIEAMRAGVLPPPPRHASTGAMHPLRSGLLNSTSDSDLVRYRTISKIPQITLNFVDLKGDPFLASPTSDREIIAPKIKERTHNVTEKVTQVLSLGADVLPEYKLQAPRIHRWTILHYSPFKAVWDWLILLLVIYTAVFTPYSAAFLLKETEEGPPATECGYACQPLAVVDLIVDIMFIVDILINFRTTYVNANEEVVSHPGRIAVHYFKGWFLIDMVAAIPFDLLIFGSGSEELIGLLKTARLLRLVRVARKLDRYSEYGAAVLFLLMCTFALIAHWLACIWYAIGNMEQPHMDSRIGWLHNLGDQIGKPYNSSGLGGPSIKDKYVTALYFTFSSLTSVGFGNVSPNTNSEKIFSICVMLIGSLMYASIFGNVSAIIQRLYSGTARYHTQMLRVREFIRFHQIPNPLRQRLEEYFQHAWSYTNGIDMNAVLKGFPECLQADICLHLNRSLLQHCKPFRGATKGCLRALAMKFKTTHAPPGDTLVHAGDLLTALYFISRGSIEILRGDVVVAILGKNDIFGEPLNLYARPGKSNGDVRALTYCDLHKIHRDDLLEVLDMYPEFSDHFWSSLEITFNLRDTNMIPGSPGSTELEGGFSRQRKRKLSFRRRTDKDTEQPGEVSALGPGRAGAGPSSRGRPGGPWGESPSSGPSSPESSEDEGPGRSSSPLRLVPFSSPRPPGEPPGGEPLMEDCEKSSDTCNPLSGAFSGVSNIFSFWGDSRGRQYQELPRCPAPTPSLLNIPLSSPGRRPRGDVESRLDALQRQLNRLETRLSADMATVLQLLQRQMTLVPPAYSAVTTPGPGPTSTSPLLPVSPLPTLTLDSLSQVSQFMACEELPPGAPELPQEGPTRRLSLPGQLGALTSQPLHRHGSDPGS

First: CC(OC(=O)CN1C(=O)COc2ccccc21)C(=O)NCc1ccc(F)cc1 (centres unmarked)
Second: Cl.Cn1cccc1CNCCc1ccc(F)cc1
The “hERG current change (%, negative = inhibition) at 1uM” value of the first is lower: 1.96% for the first, 6.23% for the second.

First: Cn1nc(-c2ccc(Cl)cc2)c2cc(C(=O)NC3CC3)sc21
Second: O=C(NC1CCCCC1)c1cc2ccccc2cc1O
The “hERG current change (%, negative = inhibition) at 1uM” value of the first is higher: 7.91% for the first, -4.58% for the second.

Going from `CCOc1ccc(N2CC(C(=O)N3CCc4ccccc4C3)CC2=O)cc1` (centres unmarked) to `CCOc1ccc(NC(=S)N2CCN(S(=O)(=O)c3ccccc3)CC2)cc1`, the “hERG current change (%, negative = inhibition) at 1uM” value rises from -67.1% to 2.68%.

Going from `CC(=NCCC(c1ccccc1)c1ccccc1)c1c(O)n(C)c(=O)n(C)c1=O` to `Cc1ccccc1OCCn1c(=O)oc2ccccc21`, the “hERG current change (%, negative = inhibition) at 1uM” value rises from 0.314% to 5.2%.

Compared with `Cc1ccc(C2C3=C(CCCC3=O)Nc3c2c(C)nn3-c2ccccn2)o1` (centres unmarked), `Cc1ccc2oc(=O)c3cnn(CC(=O)N4CCCc5ccccc54)c3c2c1` is lower in “hERG current change (%, negative = inhibition) at 1uM” value: 14.4% for the first, 4.39% for the second.

Compared with `C=CCn1c(SCC(=O)N2CCN(CCO)CC2)nc2sc3c(c2c1=O)CCC3`, `O=C(Cn1cnc2sc3c(c2c1=O)CCCC3)NCC(=O)Nc1c(F)cc(F)cc1Br` is higher in “hERG current change (%, negative = inhibition) at 1uM” value: -0.527% for the first, 11.1% for the second.

First: Cc1ccc2c(c1)N(C(=O)CCC(=O)NCCCN1CCC(Cc3ccccc3)CC1)CCO2
Second: COc1cccc(OC)c1OCCCCN1CCC(Cc2ccccc2)CC1.O=C(O)C(=O)O
The “hERG current change (%, negative = inhibition) at 1uM” value of the first is lower: -78.7% for the first, -78.6% for the second.

Compared with `CCN(CC(=O)Nc1ccc(OC)cc1)C(=O)c1cc(S(=O)(=O)N2CCOCC2)ccc1N1CCCC1`, `CC(=O)NC(=S)Nc1ccc(N2CCOCC2)c(S(=O)(=O)Nc2cc(Cl)ccc2Cl)c1` is lower in “hERG current change (%, negative = inhibition) at 1uM” value: 6.36% for the first, 6.2% for the second.

First: COc1cc(-c2nnc(SCC(=O)NC3CCS(=O)(=O)C3)o2)cc(OC)c1OC (centres unmarked)
Second: Cc1ccc(-n2nnnc2SCC(=O)NC2CCCc3ccccc32)c(C)c1 (centres unmarked)
The “hERG current change (%, negative = inhibition) at 1uM” value of the first is higher: 11.8% for the first, 3.18% for the second.

Compared with `CN(C(=O)/C=C/c1ccc(F)cc1)C1CCCCC1`, `O=C(/C=C/c1ccccc1[N+](=O)[O-])NC1CCCC1` is lower in “hERG current change (%, negative = inhibition) at 1uM” value: 8.85% for the first, 2.89% for the second.

Compared with `COc1ccccc1NC(=O)N1CCC(NC(=O)C2CCCCC2)CC1`, `COc1ccc(OC)c(NC(=O)c2c(NC(=O)CCC(=O)O)sc3c2CCCCC3)c1` is higher in “hERG current change (%, negative = inhibition) at 1uM” value: 13.1% for the first, 13.6% for the second.

First: COc1ccc(CCN=Cc2ccc(O)cc2)cc1OC
Second: CCc1ccc(C(=O)C[n+]2cccc3cc(OC)ccc32)cc1.[Br-]
The “hERG current change (%, negative = inhibition) at 1uM” value of the first is higher: 16.3% for the first, 6% for the second.

Going from `NS(=O)(=O)c1ccc(NC(=O)COC(=O)COc2ccc(Br)cc2)cc1` to `CC(NC(=O)COc1ccc([N+](=O)[O-])cc1)c1ccccc1` (centres unmarked), the “hERG current change (%, negative = inhibition) at 1uM” value falls from 9.9% to -13.1%.

Going from `Cc1sc2ncnc(SCC(=O)NNC(=O)COc3cccc4ccccc34)c2c1C` to `CCCCCOc1ccc(/C=c2\sc3nc(=O)c(-c4ccccc4)nn3c2=O)cc1OC`, the “hERG current change (%, negative = inhibition) at 1uM” value falls from 4.07% to 2.97%.

Compared with `O=C1NC2=C(CCc3ccccc32)C(c2ccc(Br)cc2)N1` (centres unmarked), `O=C(Nc1ccccc1-c1ccccc1)c1ccc(=O)[nH]n1` is higher in “hERG current change (%, negative = inhibition) at 1uM” value: -1.05% for the first, 4.54% for the second.

First: COc1ccc2[nH]c(=O)c(CN(Cc3ccc4c(c3)OCO4)C(C)=O)cc2c1
Second: COc1ccc(C(=O)N/N=C2\SCC(=O)N2Cc2ccc3c(c2)OCO3)c(OC)c1
The “hERG current change (%, negative = inhibition) at 1uM” value of the first is lower: -2.67% for the first, 7.32% for the second.

First: NC(=O)CSc1nnc(-c2cnccn2)n1-c1ccccc1
Second: Cc1ccc(C)c(-n2c(SCC(=O)NC(C(=O)O)C(C)C)nnc2-c2cccc(Cl)c2)c1 (centres unmarked)
The “hERG current change (%, negative = inhibition) at 1uM” value of the first is lower: 3.73% for the first, 6.28% for the second.

First: Cc1c(O)c(CN2CCCCC2)cc2c1oc(=O)c1ccccc12
Second: CC1CCCCN1CC(O)c1c[nH]c2ccccc12 (centres unmarked)
The “hERG current change (%, negative = inhibition) at 1uM” value of the first is lower: 11.7% for the first, 12.2% for the second.

First: CC1(C)c2ccccc2N2CCC(=O)NC21/C=C/c1ccco1 (centres unmarked)
Second: O=C(OCC(=O)N1CCN(C(=O)c2ccco2)CC1)c1ccccc1Cc1ccccc1
The “hERG current change (%, negative = inhibition) at 1uM” value of the first is higher: 12.7% for the first, -14.2% for the second.

Going from `CSc1nc(N)nc(C2CC2)n1` to `Cc1cccc(NC(=O)C2CCN(S(=O)(=O)c3c(C)c(C)cc(C)c3C)CC2)n1`, the “hERG current change (%, negative = inhibition) at 1uM” value rises from -2.75% to 10.2%.

First: CCOC(=O)[C@@H]1[C@H]2COc3ccc(Br)cc3[C@H]2N2C(=O)N(c3ccc(Cl)cc3)C(=O)[C@@]12C
Second: Cc1ccc(NC(=O)CCN2C(=O)C3CC=CCC3C2=O)cc1Cl (centres unmarked)
The “hERG current change (%, negative = inhibition) at 1uM” value of the first is higher: 16.5% for the first, 6.28% for the second.

First: CCCc1cc(=O)[nH]c(SCC(=O)Nc2nc3ccc(OCC)cc3s2)n1
Second: CCC(CC)c1nnc(NC(=O)CS(=O)(=O)Cc2ccccc2)s1
The “hERG current change (%, negative = inhibition) at 1uM” value of the first is higher: 13.9% for the first, 6.26% for the second.

First: O=S(NCc1ccccc1)C12CC3CC(CC(C3)C1)C2 (centres unmarked)
Second: OCC1(Cc2ccccc2)CCCN(Cc2c[nH]c3ccccc23)C1 (centres unmarked)
The “hERG current change (%, negative = inhibition) at 1uM” value of the first is higher: 11.9% for the first, 8.42% for the second.

Compared with `CC1CCN(S(=O)(=O)c2cccc(C(=O)NCc3cccs3)c2)CC1`, `O=C(NCCC(=O)N1CCC2(CC1)NCCc1[nH]cnc12)c1cccc(Br)c1` is higher in “hERG current change (%, negative = inhibition) at 1uM” value: -2.23% for the first, 3.97% for the second.

Compared with `O=C(Nc1cccc([N+](=O)[O-])c1)C1COc2ccccc2O1` (centres unmarked), `CC(=O)Nc1ccccc1C(=O)C(=O)Nc1cccc(C(=O)N2CCC3(CC2)OCCO3)c1` is higher in “hERG current change (%, negative = inhibition) at 1uM” value: -14% for the first, 6.83% for the second.

Compared with `COc1nn(-c2ccccc2)c(=O)c(Cl)c1Cl`, `COc1ccccc1NC(=O)CCc1nc(-c2cccs2)no1` is lower in “hERG current change (%, negative = inhibition) at 1uM” value: 14.4% for the first, -2.71% for the second.

Compared with `COc1ccc(CNc2cc(C)ccn2)c(O)c1`, `Nc1ccc(-c2nc3cc([N+](=O)[O-])ccc3o2)cc1` is higher in “hERG current change (%, negative = inhibition) at 1uM” value: 5.09% for the first, 10% for the second.

Going from `CCCC(=O)NC(=S)N1CCN(c2ccc([N+](=O)[O-])cc2)CC1` to `C=CCN1C(=O)C2(OCCCO2)c2cccc(Cl)c21`, the “hERG current change (%, negative = inhibition) at 1uM” value rises from -5.98% to 19.9%.
